Assay results reported in US20230272055A1, “ANTI-MUTANT CALRETICULIN (CALR) ANTIBODIES AND USES THEREOF” (Incyte Corporation, priority 2021, published 2023).

B1: 180 (antibody)
heavy: EVQLVQSGAEVKKPGASVKVSCKVSGYTLTELSMQWVRQAPGKGLEWMGGFDPDDGETMYAEKFQGRLTVTEDTSTDTVYMELRSLTSEDTALYFCATSPGYDFFDYWGQGTLVTVSSASTKGPSVFPLAPSSKSTSGGTAALGCLVKDYFPEPVTVSWNSGALTSGVHTFPAVLQSSGLYSLSSVVTVPSSSLGTQTYICNVNHKPSNTKVDKRV[omitted - human IgG1 Fc with changes]
light: SYVLTQPPSVSVAPGQTARITCGGSDIGDEIVHWYQQKPGQAPVLVVYDDSDRPSGIPERFSGSNSGNTATLTISRVEAGDEADYYCQVWDSSSDHLIFGGGTKLTVLGQPKAAPSVTLFPPSSEELQANKATLVCLISDFYPGAVTVAWKADSSPVKAGVETTTPSKQSNNKYAASSYLSLTPEQWKSHRSYSCQVTHEGSTVEKTVAPTECS
B2: 189 (antibody)
heavy: EVQLVQSGAEVKKPGASVKVSCKVSGYTLTELSMQWVRQAPGKGLEWMGGFDPDDAETMYAEKFQGRLTVTEDTSTDTVYMELSSLRSEDTAVYFCATSPGYDFFDYWGQGTLVTVSSASTKGPSVFPLAPSSKSTSGGTAALGCLVKDYFPEPVTVSWNSGALTSGVHTFPAVLQSSGLYSLSSVVTVPSSSLGTQTYICNVNHKPSNTKVDKRV[omitted - human IgG1 Fc with changes]
light: B1 light
B3: 174 (antibody)
heavy: EVQLVQSGAEVKKPGASVKVSCKVSGYTLTELSMQWVRQAPGKGLEWMGGFDPDDAETMYAEKFQGRLTVTEDTSTDTVYMELRSLTSEDTALYFCATSPGYDFFDYWGQGTLVTVSSASTKGPSVFPLAPSSKSTSGGTAALGCLVKDYFPEPVTVSWNSGALTSGVHTFPAVLQSSGLYSLSSVVTVPSSSLGTQTYICNVNHKPSNTKVDKRV[omitted - human IgG1 Fc with changes]
light: B1 light with V77A, E78Q
B4: 178 (antibody)
heavy: EVQLVQSGAEVKKPGASVKVSCKVSGYTLTELSMQWVRQAPGKGLEWMGGFDPDEGETMYAEKFQGRLTVTEDTSTDTVYMELSSLRSEDTAVYFCATSPGYDFFDYWGQGTLVTVSSASTKGPSVFPLAPSSKSTSGGTAALGCLVKDYFPEPVTVSWNSGALTSGVHTFPAVLQSSGLYSLSSVVTVPSSSLGTQTYICNVNHKPSNTKVDKRV[omitted - human IgG1 Fc with changes]
light: B1 light with V77A, E78Q
B5: 173 (antibody)
heavy: EVQLVQSGAEVKKPGASVKVSCKVSGYTLTELSMQWVRQAPGKGLEWMGGFDPDEGETMYAEKFQGRLTVTEDTSTDTVYMELRSLTSEDTALYFCATSPGYDFFDYWGQGTLVTVSSASTKGPSVFPLAPSSKSTSGGTAALGCLVKDYFPEPVTVSWNSGALTSGVHTFPAVLQSSGLYSLSSVVTVPSSSLGTQTYICNVNHKPSNTKVDKRV[omitted - human IgG1 Fc with changes]
light: B1 light with V77A, E78Q
B6: 61 (antibody)
heavy: EVQLVQSGAEVKKPGASVKVSCKVSGYTLTELSMQWVRQAPGKGLEWMGGFDPDAGETMYAEKFQGRLTVTEDTSTDTVYMELSSLRSEDTAVYFCATSPGYDFFDYWGQGTLVTVSSASTKGPSVFPLAPSSKSTSGGTAALGCLVKDYFPEPVTVSWNSGALTSGVHTFPAVLQSSGLYSLSSVVTVPSSSLGTQTYICNVNHKPSNTKVDKRV[omitted - human IgG1 Fc with changes]
light: QSALTQPASVSGSPGQSITISCTGTSSDVGGYNYVSWYQQHPGKAPKLMIYEVSNRPSGVSNRFSGSNSGNTATLTINRVEAGDEADYYCQVWDSSNDLLIFGGGTKLTVLGQPKAAPSVTLFPPSSEELQANKATLVCLISDFYPGAVTVAWKADSSPVKAGVETTTPSKQSNNKYAASSYLSLTPEQWKSHRSYSCQVTHEGSTVEKTVAPTECS
B7: 183 (antibody)
heavy: EVQLVQSGAEVKKPGASVKVSCKVSGYTLTELSMQWVRQAPGKGLEWMGGFDPDEGETMYAEKFQGRLTVTEDTSTDTVYMELRSLTSEDTALYFCATSPGYDFFDYWGQGTLVTVSSASTKGPSVFPLAPSSKSTSGGTAALGCLVKDYFPEPVTVSWNSGALTSGVHTFPAVLQSSGLYSLSSVVTVPSSSLGTQTYICNVNHKPSNTKVDKRV[omitted - human IgG1 Fc with changes]
light: B1 light
B8: 56 (antibody)
heavy: EVQLVQSGAEVKKPGASVKVSCKVSGYTLTELSMQWVRQAPGKGLEWMGGFDPDAGETMYAEKFQGRLTVTEDTSTDTVYMELRSLTSEDTALYFCATSPGYDFFDYWGQGTLVTVSSASTKGPSVFPLAPSSKSTSGGTAALGCLVKDYFPEPVTVSWNSGALTSGVHTFPAVLQSSGLYSLSSVVTVPSSSLGTQTYICNVNHKPSNTKVDKRV[omitted - human IgG1 Fc with changes]
light: B6 light
B9: 66 (antibody)
heavy: EVQLVQSGAEVKKPGASVKVSCKVSGYTLTELSMQWVRQAPGKGLEWMGGFDPDAGETMYAEKFQGRLTVTEDTSTDTVYMELRSLTSEDTALYFCATSPGYDFFDYWGQGTLVTVSSASTKGPSVFPLAPSSKSTSGGTAALGCLVKDYFPEPVTVSWNSGALTSGVHTFPAVLQSSGLYSLSSVVTVPSSSLGTQTYICNVNHKPSNTKVDKRV[omitted - human IgG1 Fc with changes]
light: SYVLTQPPSVSVAPGKTARITCTGTSSDVGGYNYVSWYQQKPGQAPVLVVYEVSNRPSGIPERFSGSNSGNTATLTISRVEAGDEADYYCQVWDSSNDLLIFGGGTKLTVLGQPKAAPSVTLFPPSSEELQANKATLVCLISDFYPGAVTVAWKADSSPVKAGVETTTPSKQSNNKYAASSYLSLTPEQWKSHRSYSCQVTHEGSTVEKTVAPTECS
B10: 83 (antibody)
heavy: EVQLVQSGAEVKKPGASVKVSCKVSGYTLTELSMQWVRQAPGKGLEWMGGFDPDEGETMYAEKFQGRLTVTEDTSTDTVYMELSSLRSEDTAVYFCATSPGYDFFDYWGQGTLVTVSSASTKGPSVFPLAPSSKSTSGGTAALGCLVKDYFPEPVTVSWNSGALTSGVHTFPAVLQSSGLYSLSSVVTVPSSSLGTQTYICNVNHKPSNTKVDKRV[omitted - human IgG1 Fc with changes]
light: B1 light with Q16K, S25N, D26N, D29S, E30K, I31S, S94N, H96L

These molecules were tested against T1, recombinant MBP-mutCALR Type 1 fusion protein (Homo sapiens, UniProt P27797, DEL40-40) (assay: Biacore SPR binding kinetics, Experiment 2 (parental and variant antibodies)). Settings: Biacore 8K, 25° C., 1:1 binding model.
T1 construct: His6 (N); purchased Cepter (cepterbiopartners.com), custom made
Method: The amino acid sequence of recombinant MBP-mutCALR Type 1 fusion protein used in Experiments 1 and 2 is:
Experiment 2: Recombinant MBP-mutCALR Type 1 fusion protein was custom made at Cepter (cepterbiopartners.com). Data for the interaction of antibodies with recombinant mutCALR protein were collected at 25° C. on a Biacore 8K instrument (Cytiva, Marlborough, Mass.), and all reagents were obtained from Cytiva unless otherwise specified. The experiments were conducted using Tris-buffered saline (pH 7.2), 0.005% Surfactant P20, 1 mM CaCl2) as running buffer. To prepare the capture surfaces, anti-human IgG (Fc) antibodies (Product #29234600) was amine-coupled onto a CM4 chip (Product #BR100534) under standard conditions using an Amine Coupling Kit (Product #BR100050). Anti-mutCALR antibodies were captured onto the chip surface by injecting over flow cell 2 only at a flow rate of 10 μL/min for 30 seconds. […] Recombinant MBP-mutCALR Type 1 fusion protein was prepared at nominal concentrations of 0, 0.75, 2.22, 6.67, 20, and 60 nM and injected over both flow cells 1 and 2 for 150 seconds at a flow rate of 69 L/min, followed by a 230-second dissociation phase at the same flow rate. The kinetics parameters were obtained by applying 1:1 binding model to fit the data from multiple-cycle injection experiments using Biacore Insight Evaluation software.

Row | Molecule | ka | kd
1 | B1 | 1e+07 M⁻¹ s⁻¹ | 0.127 s⁻¹
2 | B2 | 1e+07 M⁻¹ s⁻¹ | 0.0153 s⁻¹
3 | B3 | 7.8e+06 M⁻¹ s⁻¹ | 0.0041 s⁻¹
4 | B4 | 1.02e+06 M⁻¹ s⁻¹ | 0.00123 s⁻¹
5 | B5 | 5.35e+06 M⁻¹ s⁻¹ | 0.00349 s⁻¹
6 | B6 | 4.13e+06 M⁻¹ s⁻¹ | 0.00369 s⁻¹
7 | B7 | 1.23e+06 M⁻¹ s⁻¹ | 0.00124 s⁻¹
8 | B8 | 690000 M⁻¹ s⁻¹ | 0.00212 s⁻¹
9 | B9 | 3.54e+06 M⁻¹ s⁻¹ | 0.00836 s⁻¹
10 | B10 | 5.62e+06 M⁻¹ s⁻¹ | 0.00992 s⁻¹

Where a chain is given by its changes, count along the chain named.
